The campaign covered roughly 310,000 compounds. About 14,000 (4.5%) showed an effect of 50% or more. The effect is printed as a negative number. This is one part of the list.
Molecular target: human ether-à-go-go-related gene (hERG) potassium channel (human, UniProt Q12809)
Experiment: primary screen, population patch clamp on CHO cells stably expressing hERG
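Further: peak tail current of the secondary pulse compared with the same well before compound.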

Sequence of human ether-à-go-go-related gene (hERG) potassium channel (Q12809 whole entry, looked up): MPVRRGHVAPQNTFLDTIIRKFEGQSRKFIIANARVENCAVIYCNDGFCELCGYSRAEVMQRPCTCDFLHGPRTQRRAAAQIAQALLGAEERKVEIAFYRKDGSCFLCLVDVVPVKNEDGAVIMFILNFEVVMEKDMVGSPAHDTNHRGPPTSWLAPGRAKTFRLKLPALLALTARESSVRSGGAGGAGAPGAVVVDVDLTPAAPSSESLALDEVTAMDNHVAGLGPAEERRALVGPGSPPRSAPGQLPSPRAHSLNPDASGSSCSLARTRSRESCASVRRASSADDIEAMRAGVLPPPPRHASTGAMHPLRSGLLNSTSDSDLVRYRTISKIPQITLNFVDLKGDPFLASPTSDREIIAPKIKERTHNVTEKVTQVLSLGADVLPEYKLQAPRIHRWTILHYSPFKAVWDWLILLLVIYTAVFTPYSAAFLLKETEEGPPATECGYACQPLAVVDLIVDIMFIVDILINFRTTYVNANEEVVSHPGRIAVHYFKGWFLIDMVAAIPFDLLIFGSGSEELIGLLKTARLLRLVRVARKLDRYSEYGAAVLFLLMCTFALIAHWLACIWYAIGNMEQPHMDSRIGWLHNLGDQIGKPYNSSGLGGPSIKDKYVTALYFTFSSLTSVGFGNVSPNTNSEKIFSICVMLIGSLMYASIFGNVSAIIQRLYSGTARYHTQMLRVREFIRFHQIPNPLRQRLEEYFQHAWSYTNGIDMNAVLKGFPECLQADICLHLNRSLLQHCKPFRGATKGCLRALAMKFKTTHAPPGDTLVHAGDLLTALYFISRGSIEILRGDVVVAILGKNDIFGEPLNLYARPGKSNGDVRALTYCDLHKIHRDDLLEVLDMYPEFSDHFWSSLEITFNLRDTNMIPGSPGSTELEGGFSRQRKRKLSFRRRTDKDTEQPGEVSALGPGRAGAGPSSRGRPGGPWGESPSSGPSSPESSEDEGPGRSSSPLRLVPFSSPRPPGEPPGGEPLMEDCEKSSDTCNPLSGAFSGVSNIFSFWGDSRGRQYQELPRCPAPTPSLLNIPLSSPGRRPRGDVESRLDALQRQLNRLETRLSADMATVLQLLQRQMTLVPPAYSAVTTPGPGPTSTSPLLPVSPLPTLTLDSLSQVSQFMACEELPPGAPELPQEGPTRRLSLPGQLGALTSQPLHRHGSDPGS

Compound | hERG current change (%, negative = inhibition) at 10uM
O=C(NCC1CCCO1)/C(=C\c1ccccc1F)NC(=O)c1ccccc1 (stereo not shown) | -8.01%
O=C(Nc1ccccc1-c1ccccc1)C(=O)Nc1ccccc1-c1ccccc1 | 23.6%
CCOC(=O)N1CCN(C(=O)COc2ccccc2Cl)CC1 | -0.265%
O=C1C=CC(O)(c2cc(=O)c3c(O)cc(O)cc3o2)C=C1 | 12.7%
COC(=O)c1ccc(C(=O)NC2CCCN(Cc3ccc(Cl)cc3)C2)nc1 (stereo not shown) | -43.8%
COC(=O)c1sccc1NC(=O)c1cc(OC)c(OC)c(OC)c1 | 3.09%
CC1(c2nnc(Cc3ccccc3)o2)CC(c2ccc(Cl)cc2)=NO1 (stereo not shown) | -23.3%
COc1cc(/C=N/n2c(COc3ccccc3)n[nH]c2=S)cc(Br)c1O | 22%
COc1ccc(CC(=O)NNc2ncnc3c2cnn3-c2ccc(C)cc2)cc1OC | 10.5%
Cc1ccn2c(-c3csc(NCc4ccco4)n3)c(C)nc2c1 | -64.9%
CC1Cc2ccccc2N1C(=O)COC(=O)c1ccc(S(=O)(=O)N(C)C)cc1 (stereo not shown) | 12.4%
CCCCNC(=O)Nc1c(C)cc(SC#N)cc1C | 21.6%
N#C/C(=C\c1cccc(Br)c1)C(=O)N1CCCCC1 | -14.1%
N=c1oc2ccc(Br)cc2cc1C(=O)NCc1ccccc1 | 14.5%
CCCCCCCNc1cccc(C)c1 | 19.9%
Nc1ccnn1Cc1ccc(Br)s1 | 11.3%
Cc1cc(/C=N/NC(=O)CC2(C)OCCO2)c(C)n1-c1cc(Cl)cc(Cl)c1 | -5.75%
OC(c1ccc2c(c1)OCO2)c1nccc2ccccc12 (stereo not shown) | -1.04%
O=C(Nc1ccc2c(c1)OCO2)c1cccc(F)c1 | 15.3%
Nc1cc(N2CCOCC2)c(Cl)cc1[N+](=O)[O-] | 8.17%
COC(=O)c1ccc(NC(=O)CC2C(=O)N(C)C(=S)N2Cc2ccc(S(N)(=O)=O)cc2)cc1 (stereo not shown) | -13.1%
O=C(CC1CC2CCC1C2)N1CCN(S(=O)(=O)c2ccccc2C(F)(F)F)CC1 (stereo not shown) | -24.9%
O=C(O)c1ccccc1-c1cc2ccccc2[nH]1 | 19.7%

Compound | hERG current change (%, negative = inhibition) at 10uM
Cl.FC(F)Sc1ccc(NC2=NCCCCC2)cc1 | -34.9%
Cc1cc(SCc2ccccc2F)nc(=O)[nH]1 | 14.3%
Cc1[nH]c2ccccc2c1C(=O)CSc1ncn[nH]1 | 18.7%
CC(C)n1c(-c2ccccc2)nc(=S)c2c1CCCC2 | 6.54%
Cc1cc(NS(=O)(=O)c2ccccc2)c([N+](=O)[O-])cc1C | 0.908%
NNC(=O)c1sccc1OCc1ccc(F)cc1 | 2.24%
CCN1CCN(CCCNC(=O)c2ccc3c(c2)NC(=O)/C(=C\c2cccc(C)c2)S3)CC1 | -38.6%
COCCN(CC(=O)NCC1CCCO1)C(=O)CCC(=O)Nc1ccccn1 (stereo not shown) | 14.8%
CCCC1(c2ccccc2)NC(=O)N(CC(=O)NCc2ccc(C)cc2)C1=O (stereo not shown) | 8.24%
CCC(C)NC(=O)Cn1cnc2sc(C)c(S(=O)(=O)N3CCN(c4ncccn4)CC3)c2c1=O (stereo not shown) | 20.5%
O=[N+]([O-])c1ccc(S(=O)(=O)NCCc2cn3ccccc3n2)cc1 | -40.6%
Cc1cccn2c(/C=N/OCc3ccc(F)cc3)c(-c3ccc(Cl)cc3)nc12 | 9.75%
CCOc1ccc(C2CC(=O)c3c([nH]c(C(=O)OC)c3C)C2)cc1OC (stereo not shown) | 4.42%
COc1cc(C(CC(=O)Nc2cc(C)ccn2)N2Cc3ccccc3C2=O)cc(OC)c1OC (stereo not shown) | 22.3%
COc1ccc(NC(=O)CN2C(=O)CSc3ccc(S(=O)(=O)N4CCC(C)CC4)cc32)cc1 | 22.6%
CCOC(=O)C1=C(O)/C(=C/c2cc(OC)c(OC)c(OC)c2)SC1=Nc1ccc(OC)cc1 | 10.3%
Cc1nnc(N2CCC(C(=O)N3CCCCCC3)CC2)c2nn(-c3ccc(Cl)cc3)c(C)c12 | -65.2%
Cc1ccnc2nc(C(=O)OCC(=O)N(CC(C)C)C3CCS(=O)(=O)C3)nn12 (stereo not shown) | 3.36%
COCCOC(=O)c1sc2nc[nH]c(=O)c2c1C | 20.6%
O=C(NCC(c1ccco1)N1CCN(c2ccc(F)cc2)CC1)c1cccs1 (stereo not shown) | -16.1%
O=C1CN(S(=O)(=O)c2ccccc2)c2ccccc2N1 | 11.2%
CCC(C)(C)NC(=O)CN(C(=O)c1csnn1)c1cccc2c1CCCC2 | 27.7%
CC(C)CCNC(=O)C(c1ccco1)N(Cc1ccc(F)cc1)C(=O)c1snc(C(N)=O)c1N (stereo not shown) | -22.4%

Compound | hERG current change (%, negative = inhibition) at 10uM
CCC(C)NC(=O)c1ccc2c(c1)N(Cc1ccccc1)C(=O)CS2 (stereo not shown) | -6.7%
CCn1c(C)nnc1SCC(=O)Nc1cccc(Cl)c1 | -4.96%
O=C(COC(=O)c1cc(Br)ccc1O)Nc1ccc2c(c1)OCCO2 | -0.97%
O=C1NC(=Nc2cccnc2)S/C1=C/c1ccc(F)cc1 | -4.58%
Cc1ccc(N(CC(O)CN2CCCC2)S(=O)(=O)c2ccc(C)cc2)cc1.Cl (stereo not shown) | -76.4%
CC(C)c1nc2ccc(C(=O)O)cc2[nH]1 | 12.6%
Cc1cc(=O)oc(C)c1C(=O)OCC(=O)c1ccc(Cl)c(Cl)c1 | 5.44%
COc1ccc(N=C2SC(C(=O)O)CC(=O)N2C)cc1 (stereo not shown) | 1.4%
CSc1ccc(S(=O)(=O)NCC(=O)OCC(=O)N(C)C2CCCCC2)cc1[N+](=O)[O-] | -7.22%
CCOCCCNC(=O)c1ccc(/C=C2\Oc3ccccc3N(C)C2=O)cc1 | 26.3%
CC(=O)c1c(C)[nH]c(C(=O)NC2CCCCC2)c1C | 2.16%
Cc1oc(-c2ccccc2Cl)nc1CN(C)C(C)c1ccon1 (stereo not shown) | -5.27%
CCOC(=O)c1nnn(-c2nonc2N)c1CN(CC)CC | -7.44%
O=C(CN1CCCCCC1)Nc1ccccc1OC(F)F | -6.05%
COc1ccc(NC2c3ccccc3C(=O)N2c2ccccn2)cc1 (stereo not shown) | -25.6%
Cc1cccc(C(=O)O)c1NC(=O)c1ccc(F)cc1 | 17.3%
O=C(c1scc2c1CCCC2)N1CCOCC1 | 2.25%
Cc1ccc(C(=O)NC(c2ccccc2)C(Cl)Cl)cc1 (stereo not shown) | -16.6%
O=C(Cc1ccccc1)NCC(=O)N1CCC2(CC1)NCCc1[nH]cnc12 | 23.7%
O=C1CC(SCc2nc3ccccc3[nH]2)C(=O)N1c1ccc(F)c(Cl)c1 (stereo not shown) | -17.5%
S=C(Nc1ccc2c(c1)OCCO2)Nc1ccc2c(c1)OCO2 | 21.4%
CC(Sc1nc2c(cc1C#N)CCCCC2)C(=O)O (stereo not shown) | 10.6%
Cc1ccc(NC(=O)Nc2ccccc2C(=O)NCc2ccccc2)cc1 | -2.74%

Compound | hERG current change (%, negative = inhibition) at 10uM
CNC(=O)CCCCCNS(=O)(=O)c1ccc(C)cc1 | -19.6%
CCOc1ccc(Cn2nnc(C(=O)Nc3ccc(OC)cc3OC)c2N)cc1 | 12%
CCN(CC)CCNC(=O)C1(O)c2cc(Br)ccc2NC(=O)N1c1c(F)cccc1F (stereo not shown) | 14.6%
CC(C)C(=O)NC(=O)COC(=O)/C=C/c1cccs1 | 30.2%
CCOC(=O)C(=O)Nc1ccc(OCc2ccccc2)cc1 | 20.2%
CCn1c(C)nc2cc(S(=O)(=O)N3CCCCC3)ccc21 | -11.6%
CC(C(=O)O)N1C(=O)CSC1=S (stereo not shown) | 10.4%
O=C(NCC(=O)N1CCN(C(=O)c2ccco2)CC1)c1ccc(Br)cc1 | -53.9%
Cc1cc(C)c(-c2csc(NC(=O)CCCc3nc4ccccc4c(=O)[nH]3)n2)c(C)c1 | 3.79%
COc1ccc(N2C(=O)CSC23C(=O)Nc2ccccc23)cc1 (stereo not shown) | 1.55%
O=C(CSc1ncn[nH]1)NCc1ccc(Cl)cc1 | 14.2%
Cc1cc(C(=O)N2CCc3ccccc3C2)no1 | 2.72%
O=C(NCCN1CCOCC1)c1ccc(CSc2nc3ccncc3n2Cc2ccc(F)cc2)cc1 | -8.35%
CCC/C=C1/CCCOC(C(=O)NCc2ccc(S(C)(=O)=O)cc2)(C(F)(F)F)C1 (stereo not shown) | -1.19%
COC(=O)c1ccccc1NC(=O)/C=C/c1cc(OC)c(OC)c(OC)c1 | 1.15%
COc1cc(C2NC(=O)NC(c3ccccc3)=C2C(C)=O)c(Br)cc1OCC(N)=O (stereo not shown) | 18.9%
COC(=O)C1=C(c2ccc(OC)cc2)OC(=O)C1(C)C | -2.92%
COc1cc(/C=N/NC(N)=O)cc(Br)c1OCc1ccc(C)cc1 | 14.3%
O=C(Nc1nccs1)c1ccc(CSc2nnnn2-c2ccccc2)cc1 | -25.6%
COc1cc(C(=O)NN(CCC#N)C2=NS(=O)(=O)c3ccccc32)cc(OC)c1OC | 13.7%
CCOC(=O)N1CCC(NC(=O)CCC(=O)N2CCOc3ccccc32)CC1 | 8.3%
CCN(CC)S(=O)(=O)c1ccc(C(=O)NCCN(C)C)cc1.Cl | 10.5%

Source: publication PMC4336329 (PLoS ONE, 2015)
